# Out of some 310,000 compounds screened, about 2,200 (0.71%) showed an effect of 50% or more. Effects have a minus sign here. The list shows a part of the results.
# Biological target: human ether-à-go-go-related gene (hERG) potassium channel (human, UniProt Q12809)
# Experiment: primary screen, population patch clamp on CHO cells stably expressing hERG
# Chain of human ether-à-go-go-related gene (hERG) potassium channel (Q12809 whole entry, looked up): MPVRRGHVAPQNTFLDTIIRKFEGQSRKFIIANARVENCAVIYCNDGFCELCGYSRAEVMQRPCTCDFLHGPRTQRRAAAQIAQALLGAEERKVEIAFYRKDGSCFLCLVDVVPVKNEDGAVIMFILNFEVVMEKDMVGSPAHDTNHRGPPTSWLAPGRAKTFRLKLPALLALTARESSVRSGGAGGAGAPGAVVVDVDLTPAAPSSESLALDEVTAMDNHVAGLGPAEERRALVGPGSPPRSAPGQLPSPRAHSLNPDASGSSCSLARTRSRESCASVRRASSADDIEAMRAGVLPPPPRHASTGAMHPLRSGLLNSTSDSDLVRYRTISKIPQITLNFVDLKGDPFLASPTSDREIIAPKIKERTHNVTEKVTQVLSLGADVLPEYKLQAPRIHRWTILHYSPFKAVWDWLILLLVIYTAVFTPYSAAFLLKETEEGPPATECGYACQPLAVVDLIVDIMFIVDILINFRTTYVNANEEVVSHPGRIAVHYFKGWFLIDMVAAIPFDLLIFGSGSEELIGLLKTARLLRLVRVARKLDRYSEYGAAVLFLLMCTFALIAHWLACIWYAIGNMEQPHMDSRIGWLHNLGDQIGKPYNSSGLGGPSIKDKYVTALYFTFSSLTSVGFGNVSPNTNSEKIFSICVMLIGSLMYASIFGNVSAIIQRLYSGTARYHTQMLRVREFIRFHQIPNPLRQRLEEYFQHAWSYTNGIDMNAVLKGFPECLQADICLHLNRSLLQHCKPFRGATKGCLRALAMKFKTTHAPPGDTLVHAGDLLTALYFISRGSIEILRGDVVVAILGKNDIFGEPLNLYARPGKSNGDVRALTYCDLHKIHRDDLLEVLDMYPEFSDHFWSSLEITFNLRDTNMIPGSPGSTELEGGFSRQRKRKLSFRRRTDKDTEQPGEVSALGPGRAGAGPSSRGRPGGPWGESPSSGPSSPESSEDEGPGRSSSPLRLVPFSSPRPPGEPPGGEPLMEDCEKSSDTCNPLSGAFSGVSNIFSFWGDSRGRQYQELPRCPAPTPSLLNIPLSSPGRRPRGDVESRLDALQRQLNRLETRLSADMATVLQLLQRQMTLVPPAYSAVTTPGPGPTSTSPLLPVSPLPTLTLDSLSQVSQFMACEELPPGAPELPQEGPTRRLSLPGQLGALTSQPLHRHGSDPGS
row,SMILES,"hERG current change (%, negative = inhibition) at 1uM [%]"
1,O=C(NCc1ccncc1)C(=O)NCC1OCCCN1S(=O)(=O)c1ccc(F)cc1 (centres unmarked),13.9
2,Cc1ccccc1Nc1nnc(SCC(=O)c2ccc(O)cc2O)s1,10.3
3,CCCN1CCN(CCCNC(=O)CN2C(=O)c3cccnc3Oc3ccc(C)cc32)CC1,8.58
4,CCC12CN3CC(CC)(CN(C1)C3c1ccccc1Cl)C2O (centres unmarked),-0.4
5,CC(=O)N1CCN(c2ccc(N)cc2)CC1,7.17
6,CC(=O)NCCCc1nc2ccccc2n1Cc1ccc(C)cc1,-3.48
7,CCOc1ccc(S(=O)(=O)Nc2nc3ccccc3nc2N2CCN(C)CC2)cc1,2.45
8,C=CCNC(=S)NCC=C,7.5
9,c1ccc(N/N=C(\Cc2nc3ccccc3[nH]2)c2ccccc2)cc1,9.61
10,CC(=NCC1CCCO1)c1c(O)n(C)c(=O)n(C)c1=O (centres unmarked),11.8
11,Cc1csc(NC(=O)C2CCCCC2)n1,13
12,COc1ccc(Cl)cc1-c1nc(-c2ccc(Br)o2)no1,11
13,CCOc1cc(C)c(-c2onc(C(F)(F)F)c2-c2csc(C)n2)c(O)c1,15.3
14,O=C(CN1CCN(Cc2ccccc2F)C1=O)NCc1cccnc1,5.4
15,CC(=O)Nc1ccc(C(=O)Nc2cc(C(F)(F)F)ccc2-n2cnc3ccccc32)cc1,7.11
16,Cc1cccc(C(C(=O)NC2CCCCC2)N(C(=O)c2csnn2)C2CC2)c1 (centres unmarked),13.5
17,O=C1CC(CCC(=O)NC2CC2)c2ccccc2N1 (centres unmarked),-6.9
18,COc1cc(OC)cc(C(=O)N2CCN(C(=O)c3cccc(F)c3)CC2)c1,8.54
19,Cn1c(NCc2ccccc2O)nc2ccccc21,7.18
20,COc1ccc(CN(C)C(=O)c2cc(-c3ccc(C)cc3C)nc3ccccc23)c(OC)c1OC,14.7
21,O=C(N=C1SC2CS(=O)(=O)CC2N1Cc1ccc(F)cc1)C1CC1 (centres unmarked),5.2
22,COCCNC(=O)CN(C)S(=O)(=O)c1ccc2c(c1)OCCO2,11.9
23,CCc1nnc(NC(=O)C2CCN(c3cnccn3)CC2)s1,5.04

row,SMILES,"hERG current change (%, negative = inhibition) at 1uM [%]"
1,CC(C)OP(=O)(OC(C)C)C(O)c1ccc(N(C)C)cc1 (centres unmarked),14.7
2,COCC(=O)Nc1nc(-c2ccccc2)c(C)s1,-1.8
3,O=C(c1cn(Cc2ccccc2)nc1-c1ccccc1)N1CCN(c2ccccn2)CC1,2.74
4,CC(C)OS(C)(=O)=O,10.2
5,CCCn1nnnc1SCC(=O)NC1CCCC1,13.6
6,CCOCCOC(=O)c1cccc(NC(=O)OCC)c1,9.02
7,O=P(c1ccccc1)(c1ccccc1)c1cc(Br)cc(Br)c1OCCO,2.13
8,COc1ccccc1CNC1CCN(Cc2ccccc2)CC1,14.5
9,O=S(=O)(/N=C(/Nc1ccccc1)C(F)(F)F)c1ccccc1,5.12
10,CCCCc1cc(=O)oc2cc(OC(C)C(=O)NCCN3CCOCC3)c(Cl)cc12 (centres unmarked),-8.35
11,CC1CCCCN1C(=O)CNCC1CCCO1.O=C(O)C(=O)O (centres unmarked),16.2
12,COc1ccc(S(=O)(=O)NC2CC(C)(C)NC(C)(C)C2)c2ccccc12,7.04
13,Cc1ccc(-c2nnc(N3CCN(C(=O)CSc4ncn[nH]4)CC3)c3ccccc23)cc1,-3.13
14,CCc1ccc(Nc2cc(=O)n(C3CCCCC3)c(=O)[nH]2)cc1,19.2
15,CC(NS(=O)(=O)c1ccccc1)C(=O)Nc1ccc2c(c1)OCCO2 (centres unmarked),11.6
16,Cc1ccccc1NC(=O)/C(=C/c1cccs1)NC(=O)c1ccco1,9.33
17,CCOC(=O)c1[nH]c2ccc(OC)cc2c1NC(=O)c1nonc1C,7.85
18,O=C(NC(=S)Nc1cccc(F)c1)c1cccc([N+](=O)[O-])c1,16
19,CSc1nnc(Cn2c(=O)sc3ccccc32)n1C,12.2
20,Cc1ccc(-n2nc3c(c2NC(=O)C2CC2)CS(=O)(=O)C3)cc1,-0.97
21,OCC1(Cc2ccccc2)CCN(C2CCN(c3ccccc3F)CC2)CC1,-38.5
22,Cc1ccccc1-c1cnn(-c2cccc([N+](=O)[O-])c2)c1N,-4.48
23,Cc1nc(C)c(C(=O)N(c2ccc(F)cc2)C(C(=O)NCC2CCCO2)c2ccccc2)s1 (centres unmarked),6.77

row,SMILES,"hERG current change (%, negative = inhibition) at 1uM [%]"
1,Cc1nc(N)c(C#N)c(-c2ccccc2)c1C,1.76
2,CC(O)c1nc2c(c(=O)n(C)c(=O)n2C)n1C (centres unmarked),8.38
3,O=C(NC1CCN(C(=S)NCc2ccco2)CC1)C12CC3CC(CC(C3)C1)C2,9.76
4,CCN(CC)c1ccc(NC2CC(=O)N(CCc3ccc(OC)cc3)C2=O)cc1 (centres unmarked),6.82
5,Cn1cccc1CC(=O)NNC(=O)Nc1ccc(Cl)cc1,5.13
6,COC(=O)c1cc(S(=O)(=O)N2CCN(c3cccc(OC)c3)CC2)cn1C,8.34
7,O=C1N(Cc2cccnc2)C[C@@H]2C[C@@H](c3ccc(-c4ccccc4)cc3)N3CCC[C@@]123,-39
8,c1ccc(-c2cc3c(N4CCN(c5ccccc5)CC4)ncnc3s2)cc1,7.06
9,CCOC(=O)C1CCN(C(=O)CCNS(=O)(=O)c2ccc(C)cc2)CC1,6.98
10,CN(Cc1ccccc1)c1ncnc(N)c1[N+](=O)[O-],8.16
11,C=CCn1c(-c2ccc(Cl)cc2)cnc1SC(C)C(N)=O (centres unmarked),7.51
12,O=C(CSc1nc(O)c(C2CCCCC2)c(=O)[nH]1)Nc1ccc(Cl)cc1,10.1
13,COC(=O)c1ccccc1C(=O)N1CCCC(CCC(=O)NCc2ccc(F)c(F)c2)C1 (centres unmarked),1.77
14,CC(CC(=O)NC(C)c1ccc2c(c1)OCCO2)c1ccccc1 (centres unmarked),11.3
15,CC1CCCCN1C(=O)Cn1cnc2c1c(=O)n(C)c(=O)n2C (centres unmarked),14.6
16,CC(C)Cc1nn2c(=O)cc(O)nc2s1,10.2
17,Fc1ccc(Nc2ccc3ccccc3n2)c(F)c1,10.8
18,Cc1cc(Cl)c2oc(C(=O)NCCN3CCCCC3CO)c(C)c2c1 (centres unmarked),-7.44
19,CC1CCCC(C)N1S(=O)(=O)c1ccc(S(=O)(=O)NCc2ccccc2)cc1 (centres unmarked),15.1
20,COc1cc(-c2nnc3n2CCCCC3)cc(OC)c1OC,10.8
21,CC(C)(C)OC(=O)N[C@@H](Cc1ccccc1)C(=O)N1CCC(C(=O)O)CC1,5.11
22,CC1CN=C(Nc2ccc(F)c(Cl)c2)S1 (centres unmarked),12.8
23,O=C(OCCCOC(=O)c1cc[n+]([O-])cc1)c1cc[n+]([O-])cc1,10.5

row,SMILES,"hERG current change (%, negative = inhibition) at 1uM [%]"
1,Cc1ccc(S(=O)(=O)N2CCOCC2)cc1NC(=O)COC(=O)c1ccccc1OCc1c(C)noc1C,-1.21
2,Cn1c(Cn2c(=O)sc3ccccc32)nnc1SCc1ccccc1F,-25.7
3,CCCCn1c(SCC(=O)NC2CCS(=O)(=O)C2)nc2cc(S(N)(=O)=O)ccc21 (centres unmarked),3.42
4,Nc1cccc(-c2cc3ccccc3oc2=O)c1,13.8
5,COCCN1C(=O)N(c2ccc(OC)cc2)C(=O)C1CC(=O)Nc1cccc(F)c1 (centres unmarked),11.1
6,NNC(=O)c1ccccc1OCCOc1ccccc1,15.4
7,COc1cccc(CN2CCNC(=O)C2CC(=O)N(C)Cc2nc(C)cs2)c1OC (centres unmarked),0.462
8,CCC1OC(c2ccc([N+](=O)[O-])cc2)=Nc2ccccc21 (centres unmarked),8.82
9,c1ccc(-c2ccc(C(c3ccccc3)n3ccnc3)cc2)cc1 (centres unmarked),12.8
10,CCNC(=S)N(CCc1c(C)[nH]c2ccc(F)cc12)Cc1cccnc1,-0.608
11,S=C(Nc1ccccc1Oc1ccccc1)Nc1cccc(Cl)c1Cl,5.31
12,CN(C)C1(CNC(=O)C2CCN(S(=O)(=O)c3c(Cl)cccc3Cl)CC2)CCCCC1,-33.9
13,O=C(Nc1cccc(Cl)c1)NC1CC2CCC(C1)N2Cc1cccs1 (centres unmarked),2.2
14,O=c1c2ccccc2[nH]c(=S)n1-c1ccc(Br)cc1,11.6
15,O=C(OCn1cncn1)c1ccc(Cl)cc1Cl,6.33
16,COc1ccccc1CNCC(=O)N1CC(=O)Nc2ccccc21.O=C(O)C(=O)O,6.72
17,COc1cccc(N(C(=O)Cn2nnc(-c3ccc(F)cc3)n2)C(C(=O)NCC2CCCO2)c2ccc(Cl)cc2)c1 (centres unmarked),14.1
18,O=C(N[C@@H](Cc1c[nH]c2ccccc12)C(=O)O)c1ccccc1Cl,1.95
19,CCOC(=O)c1[nH]c2ccccc2c1NC(=S)Nc1ccccc1,13.2
20,COc1nc(N(C)C)nc(N(OC)S(=O)(=O)c2ccccc2Cl)n1,-3.17
21,Cc1nnc(SCC(=O)Nc2ncc3c(n2)CC(C)(C)CC3=O)s1,15.8
22,COc1ccc(CCNC(=S)N2CCC(Cc3ccccc3)CC2)cc1OC,-11.2
23,Cc1c(C)[n+](=O)c(-c2ccc(F)cc2)c(C)n1[O-],4.01

# — PMC4336329 (PLoS ONE, 2015)
